# Results as given in ChEMBL document CHEMBL4888484, “Replenishing the malaria drug discovery pipeline: Screening and hit evaluation of the MMV Hit Generation Library 1 (HGL1) against asexual blood stage Plasmodium falciparum ,using a nano luciferase reporter read-out” (2022).
# The campaign covered roughly 150,000 compounds. About 540 (0.36%) showed an effect of 50% or more. The list shows a part of the results.
# Tested on: Plasmodium falciparum
# Experiment: Primary screen in NF54 nanoGlo assay, in single point, at 2uM, 72h; a lower Z score goes with more inhibition
# Format: functional, Erythrocyte
# Conditions: timepoint 72 hour
SMILES,% Inhibition,Z score
CCc1ccc([C@@H]2CCCCCN2C(=O)CCc2ccncc2)o1,3%,-0.34
COc1ccc(C2(CC(=O)N(C)C(C)c3nc(C)cs3)CC(=O)N(C)C2=O)cc1 (stereo unspecified),9%,-1.15
Cc1cc(O[C@H]2CCN(S(=O)(=O)c3ccc(F)c(Cl)c3)C2)nc(C)n1,8%,-1.31
Cc1cc(CN2CC(C(N)=O)O[C@H](C)C2)c(OC(F)F)cc1C (stereo partly specified),-12%,1.51
CCOC(=O)[C@@H](NC(=O)Nc1ccccc1C(F)(F)F)C(F)(F)F,40%,-5.22
O=C(c1noc2c1COCC2)N1CCCc2c(Br)c(F)cc(F)c21,-4%,0.54
COC(C(=O)N1CC(C)(C)OC2(CCOC2)C1)c1cnn(C)c1 (stereo unspecified),0%,-0.03
Cc1cc(F)cc(CN2CCC3(CCC(=O)N(Cc4cccnc4)C3)CC2)c1,-11%,2.19
Cc1c(-c2c(-c3ccccc3)ncn2Cc2ccno2)[nH]c2ccccc12,-6%,0.89
O=C(Nc1ccccc1)N1CC(n2cnnc2[C@@H]2CCCO2)C1,-1%,0.13
CC(C)OCC(=O)N[C@H]1CN(c2ccc(C#N)cn2)C[C@@H]1C1CC1,3%,-0.47
C[C@H](Nc1cc(CCN)ncn1)c1cc(F)cc(F)c1,-11%,1.1
COc1cccc2c1CCC2NC(c1ncc(C)s1)C1CC1 (stereo unspecified),-9%,0.84
CC(C)CN1CCN([C@H]2CCOC3(CCN(C(=O)Cc4cccnc4)CC3)C2)CC1,-16%,3.11
O=C([C@@H]1CC[C@H](NS(=O)(=O)N2CCc3ccccc3C2)C1)N1CCOCC1,-5%,0.9
O=C([C@@H]1CCCCN1S(=O)(=O)c1cc(F)cc(F)c1)N1CCOCC1,-6%,1.08
Cc1nc2c([nH]1)CN(C[C@H](O)c1ccccc1)CC2,-12%,1.19
Cc1cccc(N(C)S(=O)(=O)c2c(C)sc(C)c2-c2cc(C)no2)c1,-13%,2.24
Cc1csc(N(CCc2ccccc2)C(=O)CC(C)(C)c2ccccc2)n1,-7%,1.25
C[C@@]1(O)CCN(Cc2cccc(F)c2)[C@@H](c2cccs2)[C@@H]1NC(=O)C1CCCC1,-9%,1.45
Cc1ncc(CNC(=O)C(=O)Nc2cccc(C#N)c2)s1,-2%,0.33
Clc1ccc2nc(OCc3ccccc3Cl)c(N3CCOCC3)c(-c3ccccc3)c2c1,-1%,0.14

SMILES,% Inhibition,Z score
O=C(c1cc2ccncc2s1)N1CCC[C@@]12CCOC2,0%,-0.01
O=C(CCc1nnn2c1CN(S(=O)(=O)c1ccccc1)CC2)N1CCOCC1,-11%,2.07
Cc1ccc2cc(C(=O)OCc3nccn3C)ccc2n1,-14%,2.35
CNC(=O)[C@H]1CC[C@H](CNc2ncc(C)c(N(C)C)n2)CC1,4%,-0.83
O=C([C@H]1C[C@@H]1c1ccccc1)N1CC(Oc2ccccc2)C1,-15%,2.69
CCC1NC(=O)N(CCC2CCCCO2)C1=O (stereo unspecified),-9%,1.03
Cc1nc(CNC(=O)c2cccn2C)[nH]c1C,4%,-0.78
Cc1cc(N[C@H]2CC[C@H](O)CC2)n2nc(C)cc2n1,-8%,1.17
O=S1(=O)C[C@@H]2CC[C@@H](C2)N1Cc1noc(-c2cccs2)n1,1%,-0.17
Cc1csc(C2(NC(=O)c3c[nH]c(C)cc3=O)CCCCCC2)n1,7%,-0.56
CCS(=O)(=O)N1CCC[C@](CCOC)(c2noc(C)n2)C1,-10%,1.6
COCCN(CC(N)=O)CC(=O)NCc1ccccc1F,36%,-4.8
Cc1noc(C(F)(F)F)c1C(=O)NCC1(C2(O)CCC2)CC1,-10%,1.69
CC[C@@H](C(=O)N1CCCN(c2nc3ccccc3c3nnc(-c4cccc(C)c4)n23)CC1)c1ccccc1,-12%,1.53
CCCc1nnc(N2CCN(C3CC3)C(=O)C2)s1,4%,-0.57
CC(N)C1CCCCN1C(=O)c1cccc2c1OCO2 (stereo unspecified),-10%,1.49
Cc1cccc2oc(CNC(=O)COCC(F)(F)C(F)F)nc12,-18%,3.01
c1cc(C2(c3noc(-c4cc(C5CC5)on4)n3)CCC2)ccn1,-5%,0.87
CC(=O)N(c1cccc(F)c1)C1CCCC1,34%,-3.82
CC1CC(O)CN1c1ccc(C(N)=O)cn1 (stereo unspecified),-7%,1.19
CC(C)(C)OC(=O)NC[C@H]1CCN(C(=O)c2ccc3[nH]cnc3c2)C1,-11%,2.09
